Data on 47 compounds can be found in PubChem BioAssay AID1508624 (National Center for Advancing Translational Sciences (NCATS), 2021).

The campaign covered roughly 48,000 compounds. About 120 (0.25%) were called active. Not shown: some 4% with an inconclusive outcome. The call rests on the fitted dose curve; in most records, active means well fitted activation curve with a large enough effect; inconclusive means small, poorly fitted or top-dose-only effect, or another doubt; inactive means no such curve, though single readings can be large or run the other way. The list shows a part of the results.

The nature of the assay: Primary qHTS for Identification of Small Molecule Activators of Huntingtin-Antisense Promoter Activity. Further: nearly all actives have a fitted effect of over 55% in size. The settings on record: HEK293 HTT-AS promoter firefly luciferase reporter, 24 h; series mostly up to 57.5 µM; activity change, positive = activation: at the top concentration. The gist of the method: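 HEK293 luciferase promoter-reporter cells (2,500/well) plated 24 h, then compounds added at up to 57.5 uM final for 24 h at 37 °C. Firefly luminescence by Dual-Glo, normalized to vehicle (0%) and zero RLU (-100%).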
(In qHTS, concentration-response curves come from the screen itself.)
With `CN(C)CCNC(=O)Cc1ccc(NC(=O)N2CCCCc3ccccc32)cc1`, the “activity change, positive = activation” value is inactive: -7.01%.

On to `Cc1ccc(C(=O)c2cn(Cc3ccc(F)cc3)c3nc(C)ccc3c2=O)cc1`, for which the “activity change, positive = activation” value is inactive: -29.8%.

Turning to `CCOC(=O)c1cc(-c2ccc(C)cc2)n(CC(=O)Nc2cccc(C(C)=O)c2)c1C`, the “activity change, positive = activation” value is inactive: -14.5%.

`O=C(CC1N=C2c3ccccc3N=C(SCC(=O)Nc3cccc(Cl)c3)N2C1=O)NCc1cccs1` (configuration not stated): the “activity change, positive = activation” value was inactive: -9.77%.

On to `CC1CCN(S(=O)(=O)c2ccc(N3CCCCS3(=O)=O)cc2)CC1`, for which the “activity change, positive = activation” value was inactive: -14.5%.

For `COc1ccc(CCNC(=O)Cn2cc(S(=O)(=O)Cc3ccccc3F)c3ccccc32)cc1OC`, the “activity change, positive = activation” value is inactive: -9.27%.

With `Cc1cccc(Cn2c(=O)n(CCC(=O)NCc3ccc4c(c3)OCO4)c(=O)c3sccc32)c1`, the “activity change, positive = activation” value is inactive: -6.23%.

On to `Cc1ccc(C)n1-c1nnc(N2CCC(C(=O)Nc3ccccc3Br)CC2)s1`, for which the “activity change, positive = activation” value was inactive: 3.37%.

In the case of `COc1ccc2c(c1)Cc1sc(NC(=O)c3ccccc3Br)nc1-2`, the “activity change, positive = activation” value is inactive: 5.94%.

For `CCn1c(SCC(=O)Nc2ccc(C)cc2Br)nnc1-c1nonc1NC(C)=O`, the “activity change, positive = activation” value is inactive: -20%.

Consider `COc1cccc(CNC(=O)CSc2nc(=O)[nH]c3c2CCCC3)c1`, for which the “activity change, positive = activation” value was inactive: -3.78%.

As to `O=C(NCc1ccc(F)cc1)c1ccc(CS(=O)(=O)c2ccc(Cl)cc2)o1`, the “activity change, positive = activation” value is inactive: -32.5%.

With `CC(=O)N[C@@H](Cc1ccc(O)cc1)C(=O)O`, the “activity change, positive = activation” value was inactive: -12.2%.

Regarding `Oc1c(C(c2ccc(Cl)cc2Cl)N2CCOCC2)sc2nc(-c3ccco3)nn12` (configuration not stated), the “activity change, positive = activation” value is inactive: -19.8%.

`OC[C@@H](O)[C@@H](O)[C@H](O)[C@H](O)CO`: the “activity change, positive = activation” value is inactive: -6.11%.

Turning to `CCc1ccc(NC(=O)Cn2c(=O)c(-c3ccccc3NC(C)=O)nc3ccccc32)cc1`, the “activity change, positive = activation” value was inactive: -31%.

`CCOc1ccc(S(=O)(=O)N(CC(=O)NCCSCc2ccc(C)cc2)c2ccccc2)cc1`: the “activity change, positive = activation” value is inactive: -13%.

As to `CCn1ccc2cc(S(=O)(=O)N3CCCN(C(=O)Nc4ccccc4C(F)(F)F)CC3)ccc21`, the “activity change, positive = activation” value was inactive: -16.8%.

Consider `Cc1ccc2c(=O)cc(C(=O)Nc3nnc(CC(C)C)s3)oc2c1C`, for which the “activity change, positive = activation” value is inactive: 2.08%.

Regarding `O=C(CN(c1ccc(Cl)c(C(F)(F)F)c1)S(=O)(=O)c1ccccc1)N1CCc2ccccc2C1`, the activity change, positive = activation is inactive: -7.79% [at 11.5 µM, percent change from vehicle, -100% = no light].

Regarding `C=CCc1ccc(O)c(OC)c1`, the “activity change, positive = activation” value was inactive: -1.19%.

In the case of `Cc1ccc(NC(=O)c2sc(-n3nc(C)c(CCC(C)C)c3C)nc2C)cc1C`, the “activity change, positive = activation” value was inactive: 1.71%.

As to `Cc1nc2ccn(Cc3cccs3)c(=O)c2cc1C(=O)N1CCN(c2ccc(F)cc2)CC1`, the “activity change, positive = activation” value is inactive: -17.4%.

On to `CCc1ccccc1N(C)C(=O)C1CCCN(c2ncnc3onc(-c4ccc(F)cc4)c23)C1` (configuration not stated), for which the “activity change, positive = activation” value was inactive: -4.3%.

For the compound `Cc1ccc(OCCn2c(CNc3cccc(C)c3)nc3ccccc32)cc1`, the “activity change, positive = activation” value was inactive: -11.7%.

For the compound `CCCN1CCc2nc(N3CCN(CC)CC3)ncc2C1`, the “activity change, positive = activation” value is inactive: -10%.

As for `COc1ccccc1CNc1cc(-c2ccccc2)nc2nncn12`, the “activity change, positive = activation” value was inactive: -32.4%.

Turning to `CCOc1cccc(C(=O)Nc2c(C(=O)c3ccc(OC)cc3)oc3ccccc23)c1`, the “activity change, positive = activation” value was inactive: -8.77%.

Turning to `CCCCOC(=O)c1ccc(NC(=O)c2cc(-c3ccccc3)on2)cc1`, the “activity change, positive = activation” value was inactive: 1.22%.

As to `COc1ccc(N2Cc3cccc(C(=O)Nc4ccc(C(C)C)cc4)c3C2=O)cc1`, the “activity change, positive = activation” value is inactive: 6.23%.

As for `CC(=O)c1ccc(C(=O)N(CCCN(C)C)c2nc3c(C)c(C)ccc3s2)cc1`, the “activity change, positive = activation” value is inactive: -21.6%.

With `CS(=O)(=O)NCC(c1ccco1)N1CCN(c2ccccc2)CC1` (configuration not stated), the “activity change, positive = activation” value was inactive: -15.1%.

Turning to `CCOC(=O)C1CCCN(C(=O)C2CCN(c3nnc(C)c4c(C)n(-c5ccccc5)nc34)CC2)C1` (configuration not stated), the “activity change, positive = activation” value is inactive: -17.2%.

`COc1ccccc1C(=O)NCc1ccc2c(c1)CCN2C(=O)c1ccncc1`: the “activity change, positive = activation” value is inactive: -15.9%.

`Cc1cc(NC(=O)CSc2nc3c([nH]c4ccccc43)c(=O)n2-c2cccc(Cl)c2)no1`: the “activity change, positive = activation” value is inactive: -26.1%.

As to `Clc1ccc(-c2noc3ncnc(NCCCN4CCN(c5ccccc5)CC4)c23)cc1`, the “activity change, positive = activation” value was inactive: -24.2%.

On to `CCn1cc(C(=O)O)c(=O)c2cc(F)c(N3CCNCC3)nc21`, for which the activity change, positive = activation result was “inactive”.

On to `CCOc1ccccc1NC(=O)C(Cc1ccccc1)NS(=O)(=O)c1ccc(Br)s1` (configuration not stated), for which the “activity change, positive = activation” value is inactive: -41.3%.

On to `Cc1ccc(C)c(N2CCN(C(=O)C3CCN(S(=O)(=O)c4cn(C)cn4)CC3)CC2)c1`, for which the “activity change, positive = activation” value is inactive: -11.9%.

`CC(=O)OCC(=O)NCCCOc1cccc(CN2CCCCC2)c1`: the “activity change, positive = activation” value is inactive: -3.57%.

For the compound `CCc1ccc(CNC(=O)C(CC)n2ccc3cc(S(=O)(=O)N4CCCCC4)ccc32)cc1` (configuration not stated), the “activity change, positive = activation” value was inactive: -5.81%.

Take `CC1=C(C(=O)Nc2cccnc2)C(c2ccc(F)cc2)n2nc(SCc3ccccc3F)nc2N1` (configuration not stated): the “activity change, positive = activation” value was inactive: -10.2%.

Take `CCN(C(=O)c1cc2c(Cl)nc3ccccc3c2s1)c1cccc(Cl)c1`: the “activity change, positive = activation” value is inactive: -7.91%.

As for `CCOC(=O)c1cnc2c(C)c(Cl)ccc2c1Nc1ccc(C)cc1C`, the “activity change, positive = activation” value was inactive: -8.49%.

As to `CN1c2cc(Cl)ccc2-c2nc(SCC(=O)Nc3ccc(F)cc3F)ncc2S1(=O)=O`, the “activity change, positive = activation” value was inactive: -28%.

With `COc1cc(NC(=O)CN(C)S(=O)(=O)c2ccc3[nH]c4c(c3c2)CCCC4)cc(OC)c1OC`, the “activity change, positive = activation” value was inactive: -24.2%.

Turning to `C[C@H](NCc1ccc(OCc2cccc(F)c2)cc1)C(N)=O`, the “activity change, positive = activation” value is inactive: 8.47%.
